# Results published in PubChem BioAssay AID686978 (National Center for Advancing Translational Sciences (NCATS), 2013).
# Hit rate of the full screen: of about 420,000 compounds, about 64,000 (15%) were called active. Inconclusive means that the source gave no clear call. Such entries were picked first, then a sample of the others. Calls come from the whole dose curve; as a rule, active = well fitted inhibition curve with a large enough effect; inconclusive = small, poorly fitted or top-dose-only effect; inactive = flat fitted curve, though single readings scatter. Potencies of inconclusive entries are left out as doubtful fits.
# Assay: qHTS for Inhibitors of human tyrosyl-DNA phosphodiesterase 1 (TDP1): qHTS in cells in absence of CPT; note: nearly all actives have a fitted effect of over 55% in size
# Conditions: DT40 Tdp1-/- hTDP1 cells, no CPT, ATP luminescence, 48 h; activity change, negative = growth inhibition: at 46.2 µM (top of the series)
# How it was run: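 Stably hTDP1-transfected Tdp1-null chicken DT40 cells were treated with library compounds minus camptothecin and grown for at least 48 hr at 37 °C, after which cellular ATP was quantified by luminescence.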
# % is set by controls: 0 for no effect and ±100 for the full control effect; potency is the fitted concentration of half-maximal effect; tags give direction and shape of the fitted curve.
SMILES,Potency,"activity change, negative = growth inhibition"
Cc1ccc2nc(NC(=O)c3cc(-c4ccco4)nc4ccccc34)sc2c1,"inconclusive [inhibitor, single point]",–
CCCCNC(=O)N1CCN(C(c2ccccc2)c2ccccc2)CC1,–,inconclusive: -33.7% [inhibitor]
CCOC(=O)c1ccc(S(=O)(=O)N(CCO)Cc2cc3cc(OC)c(OC)cc3[nH]c2=O)cc1,–,inactive: -29.3%
CCNc1ccc(C(=O)OCC(=O)c2cc(C)n(Cc3ccc4c(c3)OCO4)c2C)cc1[N+](=O)[O-],"inconclusive [inhibitor, partial curve, poor fit]",–
O=C(N/N=C/c1ccccn1)c1cc(C2CC2)nc2ccccc12,"inconclusive [inhibitor, single point]",–
O=C(Nc1cccc(F)c1)N1CC[C@@]2(CCCN(C(=O)c3ccncc3)C2)C1,–,inactive: -7.48%
COc1ccc(/C=C/c2nnc(NC(C)=O)s2)cc1,–,inactive: -28.5%
Cc1ccc(OCC(O)CN2CCN(Cc3ccc4c(c3)OCO4)CC2)cc1C (stereo not given),–,inconclusive: -36.6% [inhibitor]
COc1ccc2nc(NC(=O)NC3CCCCC3)sc2c1,"inconclusive [inhibitor, single point]",–
Cc1cc(N/N=C/c2c[nH]c3ccccc23)c2ccccc2n1,–,inactive: -18.5%
COc1ccccc1OCC(O)CN1CCOCC1 (stereo not given),–,inactive: -2.17%
CC(=O)N1c2ccc(S(=O)(=O)NCCC(=O)NCc3ccc(N(C)C)cc3)cc2CC1C (stereo not given),"inconclusive [inhibitor, single point]",–
COc1cc(C(=O)NCCOc2ccc(Cl)cc2)ccc1OCc1c(C)noc1C,"inconclusive [inhibitor, partial curve, poor fit]",–
COc1ccc(Cl)cc1NC(=O)CSc1nc(Nc2ccccc2)nc(N2CCOCC2)n1,active: 18.4 µM,–
O=C1N=C(N2CCN(c3ccccc3)CC2)S/C1=C/c1ccco1,"inconclusive [inhibitor, partial curve]",–
Cc1ccccc1OCc1nc2c3cnn(-c4ccccc4Br)c3ncn2n1,"inconclusive [inhibitor, single point]",–
CN[C@H]1C[C@H]2c3[nH]c4ccc(-c5cccc(C)c5)cc4c3CCN2C[C@H]1[C@H](C)O,active: 11.6 µM,–
CC(C)N(C(=O)CSc1nc2c([nH]1)c(=O)n(C)c(=O)n2C)c1ccccc1,–,inactive: -17.6%
Cc1oc(-c2ccccc2F)nc1Cn1c(SCc2ccccc2F)nc2ccncc21,active: 14.6 µM,–
CC(/C=N/NC(=O)Cc1cccn1C)=C\c1ccccc1,"inconclusive [inhibitor, single point]",–
